Whole data set: some 33,000 sequences, median “E-score (-0.5 to 0.5)” near -0.017, cut for the highest 2% near 0.3. This is one part of the list.
biological target: T1, Sut1 (UniProt P53032); test: PBM E-score (8-mer binding enrichment) (E-score (-0.5 to 0.5)); higher = stronger / more preferred TF binding; most listed sequences are background and not binding sites; conditions: protein concentration: 200 nM; construct: GST-full length
T1 sequence: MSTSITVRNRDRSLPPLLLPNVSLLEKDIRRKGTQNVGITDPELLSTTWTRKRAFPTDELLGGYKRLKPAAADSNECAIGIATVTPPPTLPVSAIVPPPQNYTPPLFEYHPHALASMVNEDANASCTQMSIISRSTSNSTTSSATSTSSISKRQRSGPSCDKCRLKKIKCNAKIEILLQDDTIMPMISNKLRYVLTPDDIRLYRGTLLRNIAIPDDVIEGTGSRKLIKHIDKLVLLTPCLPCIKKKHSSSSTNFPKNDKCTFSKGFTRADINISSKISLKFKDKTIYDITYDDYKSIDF
Procedure, shortened: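 E-scores (a modified Wilcoxon-Mann-Whitney statistic) were assigned by the Universal PBM Analysis Suite to every ungapped eight-base word pooled with its reverse complement. The input came from universal all-10-mer Agilent arrays made double-stranded by primer extension and probed with GST-tagged yeast transcription factors at about 100-200 nM. Fluorescent anti-GST detected bound protein, and masliner normalised the scans.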

Row | Sequence | PBM E-score
1 | AGAGGACA | 0.00465
2 | ATCTAACC | 0.0714
3 | GTGTCATA | 0.179
4 | CGAAGGCG | -0.13
5 | AACCGCAT | 0.0306
6 | AGTTCGCA | 0.0569
7 | ATCGCGAC | -0.07
8 | CCCAACGG | -0.0131
9 | AAGCCACC | -0.198
10 | CCTGAGAG | -0.249
11 | ACCCGTTC | -0.0305
12 | ACTAAACT | 0.0855
13 | CGTTTAAC | 0.058
14 | AATTGGCT | 0.127
15 | ATGACAAA | 0.0746
16 | CGAGCTAG | 0.183
17 | GCATTCAC | 0.0569
18 | ACATCGGC | -0.0386
19 | AAGAATAA | 0.182
20 | ACAATAGT | 0.0629
21 | GCAAAGAC | -0.00384
22 | AACAGACG | -0.105
23 | AAACTTCG | 0.117
24 | ACGGCAAG | -0.0665
25 | CCAGACGA | -0.149

Row | Sequence | PBM E-score
26 | ATCTGGCA | -0.129
27 | ACTTGGAA | -0.0535
28 | AATGCCAC | 0.0218
29 | CTACATGC | -0.075
30 | AAGGAGCT | -0.183
31 | GTCGTATA | 0.0955
32 | AAGAATAG | 0.0544
33 | AATGGAAC | 0.0496
34 | ACCAGAGC | -0.0619
35 | AACTCAAG | 0.129
36 | CGAAAGCG | -0.13
37 | ACTTGGCG | -0.219
38 | GCGACCCC | -0.313
39 | AGTTGGTA | 0.0321
40 | AGGGCTCC | -0.0218
41 | GGGACATA | -0.0931
42 | CCTTGTCG | -0.234
43 | ATCTCATG | -0.0827
44 | ACTGGAGC | -0.337
45 | CGTCGTAC | -0.0274
46 | GGCACGAA | -0.196
47 | AATTAAGT | 0.241
48 | CAGATCTG | -0.14
49 | AATTCAGA | 0.105
50 | CGACAAAC | -0.0645

Row | Sequence | PBM E-score
51 | TGACCTCA | -0.125
52 | CACGGGGG | -0.28
53 | GGAGTACA | 0.245
54 | CAATGCTG | -0.182
55 | CTTGGCAA | -0.162
56 | GGAATTCA | 0.156
57 | ACAAAACT | 0.145
58 | CAAAAGCG | -0.0511
59 | AATCTAGG | 0.00837
60 | AGCGTGTA | -0.115
61 | ACAGTGTG | -0.196
62 | GAATAGAC | -0.0915
63 | GTTGATCA | 0.0012
64 | CCAAAAGG | -0.0868
65 | ACATAATA | 0.278
66 | CCTCAATC | 0.00675
67 | ACTGATGA | 0.0353
68 | GAAACCGA | -0.145
69 | GTGGGTGA | 0.0308
70 | CATCGGAG | 0.435
71 | CTGATCAA | -0.207
72 | CTGCAAGC | -0.0892
73 | CCAGCAGA | -0.273
74 | CAATCGGC | -0.049
75 | ACAAATTC | 0.096

Row | Sequence | PBM E-score
76 | CCTGACAG | -0.193
77 | GCCGCACC | -0.0928
78 | GCCAAACA | 0.105
79 | TGTGCCAA | -0.0053
80 | CAGTATTC | 0.142
81 | CACAATAA | 0.0667
82 | CCAAGCTC | 0.0466
83 | GCCGAAAA | 0.263
84 | CTGTACGC | -0.205
85 | CTAGTGCA | -0.00232
86 | AGTCAACT | -0.157
87 | GCAAAGCA | -0.17
88 | GCTCGGCC | -0.204
89 | AATCGGGA | 0.14
90 | CTCCCGTC | -0.00842
91 | ACAGTACT | -0.0354
92 | AGGGCTCA | -0.318
93 | CTATCGAC | -0.169
94 | GACGGCTC | -0.116
95 | CTGGAGCA | -0.229
96 | CCTATCTC | -0.0562
97 | TATGGCAA | -0.0509
98 | AAATACCC | 0.116
99 | CCTGATCC | -0.0908
100 | CGAGCTTA | -0.0205

Row | Sequence | PBM E-score
101 | GCCGTCAA | -0.198
102 | AAGCTTGT | 0.0438
103 | GTTTGGCA | -0.0612
104 | CTTCTGCC | -0.214
105 | AAGGTTTG | 0.048
106 | AGCGACAA | -0.0964
107 | AAGTTCGA | 0.0625
108 | CTACGTAA | -0.0303
109 | ATGCCTGC | -0.104
110 | CATACAGA | 0.139
111 | ATGGAGGC | -0.214
112 | AGGGACTC | -0.186
113 | AGGGCGGA | 0.0562
114 | ACCAAGTG | -0.101
115 | GATTAAAC | 0.114
116 | ATGTCGTA | -0.0172
117 | AGAACCTG | -0.0844
118 | CGTGTCCA | -0.221
119 | TAACGATA | 0.221
120 | CCTGTCCC | -0.184
121 | ATATTTCC | 0.224
122 | AATGGTGT | 0.0953
123 | TATGCCGA | 0.131
124 | GTCGGCGA | -0.0786
125 | TGATCGAA | -0.131

Row | Sequence | PBM E-score
126 | CAGCTCAG | -0.262
127 | ATGGCATG | -0.0543
128 | AGCTAAAA | 0.0925
129 | ATTCGAAG | 0.0299
130 | TAGAGCAA | -0.133
131 | ACAGCCTC | -0.278
132 | CATTTTAG | 0.226
133 | CGCTCCAC | -0.012
134 | TCTTTACA | 0.167
135 | CTTTTGTC | 0.232
136 | TATCACAA | 0.0853
137 | GCACCATA | -0.225
138 | CTGCCGTA | -0.233
139 | GGTTCGTA | 0.0442
140 | CCCTTCAC | -0.253
141 | AAGGCTGT | -0.106
142 | CGCGGTAA | 0.0984
143 | AGGGCCTC | -0.0172
144 | GACCCTAC | -0.16
145 | GGTCGAAA | -0.14
146 | ATAGCGAT | -0.0999
147 | GGTACTCA | -0.00906
148 | AACTTGAC | -0.00987
149 | CTACGGAA | 0.0897
150 | GCGCCGAC | -0.092

Row | Sequence | PBM E-score
151 | CCCTGCAC | -0.232
152 | GCATTAGA | 0.023
153 | ATAAATCA | 0.102
154 | AGTGGAGC | -0.0133
155 | AGGTGGCA | -0.103
156 | CGGAGCTA | 0.385
157 | CCGGTGAA | 0.102
158 | TATGCCAA | -0.0127
159 | AAGGTCGT | -0.135
160 | AGGGAGTC | -0.22
161 | AAAGCCTC | -0.0361
162 | GAGAGTAC | -0.0509
163 | GATACCGA | -0.0856
164 | GGATACCA | -0.119
165 | AACACAGT | 0.143
166 | TCCCATAA | -0.0866
167 | TACCTCGA | -0.0766
168 | CAGTAACG | 0.125
169 | ACAGTGGC | -0.216
170 | CGTTCAAG | 0.0209
171 | GGGCTGGA | -0.122
172 | GCAGAGGA | -0.102
